Laboratory results taken from PMC11442847.

Target: Integrin alpha-5 (UniProt P08648)
Assay: cross-link between two proteins; co-fractionation; cross-linking mass spectrometry

Sequence of Integrin beta-1 (chain, as listed by the source): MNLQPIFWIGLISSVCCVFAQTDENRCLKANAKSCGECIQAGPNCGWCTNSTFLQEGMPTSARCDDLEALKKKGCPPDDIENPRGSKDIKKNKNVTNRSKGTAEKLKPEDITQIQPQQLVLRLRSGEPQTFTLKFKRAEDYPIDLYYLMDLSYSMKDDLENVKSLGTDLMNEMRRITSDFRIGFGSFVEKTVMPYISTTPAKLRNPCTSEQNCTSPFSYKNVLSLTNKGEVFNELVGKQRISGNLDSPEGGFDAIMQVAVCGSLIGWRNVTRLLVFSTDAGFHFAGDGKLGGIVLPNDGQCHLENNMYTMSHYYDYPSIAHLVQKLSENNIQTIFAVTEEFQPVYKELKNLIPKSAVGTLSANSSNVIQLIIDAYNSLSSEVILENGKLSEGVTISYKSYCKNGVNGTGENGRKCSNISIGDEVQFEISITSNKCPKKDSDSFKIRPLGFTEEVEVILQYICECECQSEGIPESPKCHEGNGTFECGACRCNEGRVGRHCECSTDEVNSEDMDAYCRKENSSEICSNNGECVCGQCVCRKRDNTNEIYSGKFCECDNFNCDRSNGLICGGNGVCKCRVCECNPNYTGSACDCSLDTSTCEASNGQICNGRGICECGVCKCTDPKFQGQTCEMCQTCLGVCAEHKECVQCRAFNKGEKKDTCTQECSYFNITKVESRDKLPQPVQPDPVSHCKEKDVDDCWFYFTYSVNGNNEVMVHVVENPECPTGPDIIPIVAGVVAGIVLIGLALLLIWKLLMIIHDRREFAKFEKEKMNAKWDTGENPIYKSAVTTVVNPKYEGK
Sequence of UniProt P08648 (P08648 whole entry): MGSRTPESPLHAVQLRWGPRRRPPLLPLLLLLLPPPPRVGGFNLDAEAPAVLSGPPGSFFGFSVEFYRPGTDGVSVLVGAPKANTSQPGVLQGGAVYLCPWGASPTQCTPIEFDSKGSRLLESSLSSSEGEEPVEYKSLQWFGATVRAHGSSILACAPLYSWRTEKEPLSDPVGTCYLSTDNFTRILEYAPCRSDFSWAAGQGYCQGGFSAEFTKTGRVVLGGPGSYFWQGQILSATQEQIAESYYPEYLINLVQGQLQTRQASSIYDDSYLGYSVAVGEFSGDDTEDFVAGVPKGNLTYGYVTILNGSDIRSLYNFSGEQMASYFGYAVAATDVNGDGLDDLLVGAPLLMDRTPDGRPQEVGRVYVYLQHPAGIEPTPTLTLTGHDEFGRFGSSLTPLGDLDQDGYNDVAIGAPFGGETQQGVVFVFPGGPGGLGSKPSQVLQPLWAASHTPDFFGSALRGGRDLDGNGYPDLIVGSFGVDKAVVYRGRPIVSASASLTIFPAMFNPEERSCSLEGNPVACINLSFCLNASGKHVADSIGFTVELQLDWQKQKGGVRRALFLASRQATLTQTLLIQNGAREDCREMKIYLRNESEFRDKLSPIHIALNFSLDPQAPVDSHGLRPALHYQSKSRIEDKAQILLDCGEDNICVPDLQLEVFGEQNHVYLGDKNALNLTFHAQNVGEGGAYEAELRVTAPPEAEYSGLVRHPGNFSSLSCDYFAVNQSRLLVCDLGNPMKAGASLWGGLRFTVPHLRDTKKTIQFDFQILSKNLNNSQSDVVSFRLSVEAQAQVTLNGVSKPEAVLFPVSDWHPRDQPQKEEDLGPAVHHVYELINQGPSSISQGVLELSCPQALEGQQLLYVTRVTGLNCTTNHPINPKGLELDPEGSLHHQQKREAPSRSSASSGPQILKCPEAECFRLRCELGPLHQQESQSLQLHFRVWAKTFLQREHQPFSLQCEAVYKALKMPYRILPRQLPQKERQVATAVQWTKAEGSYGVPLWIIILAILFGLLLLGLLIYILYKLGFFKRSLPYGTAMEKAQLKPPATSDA

Integrin beta-1
listed as a hit: yes
